Results published in the supplement of paper PMC8728848.
The other results are listed elsewhere or left out.

Key:
Assay in all cases: glycan array binding signal (z-score within array); higher = stronger binding
Conditions in all cases: glycan notation: IUPAC condensed, linker removed
[1] = biological target: Fuc(a1-2)Gal
Summary of the method: (§1)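 Columns mapping to the same glycan were averaged after glycan names were converted to IUPAC-condensed notation. The data come from 3228 arrays in the Consortium for Functional Glycomics database, limited to those with an available protein sequence. Binding is reported as a within-array Z-score averaged across arrays of one protein sequence and across linkers.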

[2] = biological target: Fuc(a1-2)Gal(b1-3)GalNAc
Summary of the method: as §1

[3] = biological target: Fuc(a1-2)Gal(b1-3)GalNAc(b1-3)Gal
Summary of the method: as §1

[4] = biological target: Fuc(a1-2)Gal(b1-3)GalNAc(b1-3)Gal(a1-4)Gal(b1-4)Glc
Summary of the method: as §1

[5] = biological target: Fuc(a1-2)Gal(b1-3)GalNAc(b1-4)[Neu5Ac(a2-3)]Gal(b1-4)Glc
Summary of the method: as §1

[6] = biological target: Fuc(a1-2)Gal(b1-3)GlcNAc
Summary of the method: as §1

[7] = biological target: Fuc(a1-2)Gal(b1-3)GlcNAc(b1-3)Gal(b1-4)Glc
Summary of the method: as §1

[8] = biological target: Fuc(a1-2)Gal(b1-3)[Fuc(a1-4)]GlcNAc
Summary of the method: as §1

[9] = biological target: Fuc(a1-2)Gal(b1-4)Glc
Summary of the method: as §1

[10] = biological target: Fuc(a1-2)Gal(b1-4)Glc6S
Summary of the method: as §1

[11] = biological target: Fuc(a1-2)Gal(b1-4)GlcNAc
Summary of the method: as §1

[12] = biological target: Fuc(a1-2)Gal(b1-4)GlcNAc(b1-3)Gal(b1-4)GlcNAc
Summary of the method: as §1

[13] = biological target: Fuc(a1-2)Gal(b1-4)GlcNAc(b1-3)Gal(b1-4)GlcNAc(b1-3)Gal(b1-4)GlcNAc
Summary of the method: as §1

[14] = biological target: Fuc(a1-2)Gal(b1-4)GlcNAc6S
Summary of the method: as §1

[15] = biological target: Fuc(a1-2)Gal(b1-4)[Fuc(a1-3)]GlcNAc
Summary of the method: as §1

[16] = biological target: Fuc(a1-2)Gal(b1-4)[Fuc(a1-3)]GlcNAc(b1-3)Gal(b1-4)[Fuc(a1-3)]GlcNAc
Summary of the method: as §1

[17] = biological target: Fuc(a1-2)Gal(b1-4)[Fuc(a1-3)]GlcNAc(b1-3)Gal(b1-4)[Fuc(a1-3)]GlcNAc(b1-3)Gal(b1-4)[Fuc(a1-3)]GlcNAc
Summary of the method: as §1

[18] = biological target: Fuc(a1-2)Gal6S(b1-4)Glc
Summary of the method: as §1

[19] = biological target: Fuc(a1-2)Gal6S(b1-4)Glc6S
Summary of the method: as §1

[20] = biological target: Fuc(a1-2)Gal6S(b1-4)GlcNAc
Summary of the method: as §1

[21] = biological target: Fuc(a1-2)[Gal(a1-3)]Gal
Summary of the method: as §1

[22] = biological target: Fuc(a1-2)[Gal(a1-3)]Gal(b1-3)GlcNAc
Summary of the method: as §1

[23] = biological target: Fuc(a1-2)[Gal(a1-3)]Gal(b1-4)Glc
Summary of the method: as §1

[24] = biological target: Fuc(a1-2)[Gal(a1-3)]Gal(b1-4)GlcNAc
Summary of the method: as §1

[25] = biological target: Fuc(a1-2)[Gal(a1-3)]Gal(b1-4)[Fuc(a1-3)]GlcNAc
Summary of the method: as §1

[26] = biological target: Fuc(a1-2)[Gal(a1-4)]Gal(b1-4)GlcNAc
Summary of the method: as §1

[27] = biological target: Fuc(a1-2)[GalNAc(a1-3)]Gal
Summary of the method: as §1

[28] = biological target: Fuc(a1-2)[GalNAc(a1-3)]Gal(b1-3)GlcNAc
Summary of the method: as §1

[29] = biological target: Fuc(a1-2)[GalNAc(a1-3)]Gal(b1-4)Glc
Summary of the method: as §1

[30] = biological target: Fuc(a1-2)[GalNAc(a1-3)]Gal(b1-4)GlcNAc
Summary of the method: as §1

[31] = biological target: Fuc(a1-2)[GalNAc(a1-3)]Gal(b1-4)[Fuc(a1-3)]GlcNAc
Summary of the method: as §1

[32] = biological target: Fuc(a1-2)[GalNAc(a1-4)]Gal(b1-4)GlcNAc
Summary of the method: as §1

[33] = biological target: Fuc(a1-2)[GalNAc(b1-3)]Gal
Summary of the method: as §1

[34] = biological target: Fuc(a1-3)GlcNAc
Summary of the method: as §1

[35] = biological target: Fuc(a1-3)[Gal(b1-4)]Glc6S
Summary of the method: as §1

[36] = biological target: Fuc(a1-3)[Gal(b1-4)]GlcNAc
Summary of the method: as §1

[37] = biological target: Fuc(a1-3)[Gal(b1-4)]GlcNAc(b1-2)Man(a1-3)[Fuc(a1-3)[Gal(b1-4)]GlcNAc(b1-2)Man(a1-6)]Man(b1-4)GlcNAc(b1-4)GlcNAc
Summary of the method: as §1

[38] = biological target: Fuc(a1-3)[Gal(b1-4)]GlcNAc(b1-2)Man(a1-6)[Gal(b1-4)GlcNAc(b1-2)Man(a1-3)]Man(b1-4)GlcNAc(b1-4)GlcNAc
Summary of the method: as §1

[39] = biological target: Fuc(a1-3)[Gal(b1-4)]GlcNAc(b1-3)Gal(b1-3)[Fuc(a1-4)]GlcNAc
Summary of the method: as §1

[40] = biological target: Fuc(a1-3)[Gal(b1-4)]GlcNAc(b1-4)Gal(b1-4)[Fuc(a1-3)]GlcNAc
Summary of the method: as §1

[41] = biological target: Fuc(a1-3)[Gal(b1-4)]GlcNAc(b1-4)Gal(b1-4)[Fuc(a1-3)]GlcNAc(b1-4)Gal(b1-4)[Fuc(a1-3)]GlcNAc
Summary of the method: as §1

[42] = biological target: Fuc(a1-3)[Gal(b1-4)]GlcNAc6S
Summary of the method: as §1

[43] = biological target: Fuc(a1-3)[Gal3S(b1-4)]Glc6S
Summary of the method: as §1

[44] = biological target: Fuc(a1-3)[Gal3S(b1-4)]GlcNAc
Summary of the method: as §1

[45] = biological target: Fuc(a1-3)[Gal3S(b1-4)]GlcNAc6S
Summary of the method: as §1

B1: GH98CBM (Clostridium perfringens) (protein)
chain: EVYALEESRDVYLSDLDWLNATHGDDTKSKIVQKNHPFTPGNNNQSTKISLKMEDGSISEFEKGLGTIAGSPSTITYDISGAGVTKFFSYLGIDRSANPINEQYAKVDKIEVVVDGKVIYSTINQFPNGLTYETPAIKVDLNIPENAKRLQLKSYAGEKTWGDEVVYADAKFTAKGDFVN
glycan array binding signal (z-score) [1]: -0.247
glycan array binding signal (z-score) [2]: -0.079
glycan array binding signal (z-score) [3]: -0.124
glycan array binding signal (z-score) [4]: -0.037
glycan array binding signal (z-score) [5]: -0.066
glycan array binding signal (z-score) [6]: -0.219
glycan array binding signal (z-score) [7]: -0.272
glycan array binding signal (z-score) [8]: -0.254
glycan array binding signal (z-score) [9]: -0.178
glycan array binding signal (z-score) [10]: -0.221
glycan array binding signal (z-score) [11]: -0.2
glycan array binding signal (z-score) [12]: -0.248
glycan array binding signal (z-score) [13]: -0.125
glycan array binding signal (z-score) [14]: -0.178
glycan array binding signal (z-score) [15]: -0.156
glycan array binding signal (z-score) [16]: -0.186
glycan array binding signal (z-score) [17]: -0.098
glycan array binding signal (z-score) [18]: -0.254
glycan array binding signal (z-score) [19]: -0.229
glycan array binding signal (z-score) [20]: -0.208
glycan array binding signal (z-score) [21]: 1.3
glycan array binding signal (z-score) [22]: -0.05
glycan array binding signal (z-score) [23]: 2.19
glycan array binding signal (z-score) [24]: 2.11
glycan array binding signal (z-score) [25]: 1.18
glycan array binding signal (z-score) [26]: -0.007
glycan array binding signal (z-score) [27]: 4.81
glycan array binding signal (z-score) [28]: 0.125
glycan array binding signal (z-score) [29]: 6.66
glycan array binding signal (z-score) [30]: 8.52
glycan array binding signal (z-score) [31]: 5.47
glycan array binding signal (z-score) [32]: -0.209
glycan array binding signal (z-score) [33]: -0.204
glycan array binding signal (z-score) [34]: -0.309
glycan array binding signal (z-score) [35]: -0.141
glycan array binding signal (z-score) [36]: -0.196
glycan array binding signal (z-score) [37]: 0.041
glycan array binding signal (z-score) [38]: -0.101
glycan array binding signal (z-score) [39]: -0.195
glycan array binding signal (z-score) [40]: -0.105
glycan array binding signal (z-score) [41]: -0.235
glycan array binding signal (z-score) [42]: -0.222
glycan array binding signal (z-score) [43]: -0.115
glycan array binding signal (z-score) [44]: -0.126
glycan array binding signal (z-score) [45]: -0.157
